# This is one part of the list.
# Molecular target: no compound (DMSO)
# Assay: log2 fold change of degron read counts, EGFP-low vs EGFP+ sorted cells; higher = lower degron-EGFP level without compound (poor expression or instability)
# Conditions: compound: DMSO control; 18 h
# 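Further: jurkat cells carrying a lentiviral library of mutant zinc finger degrons fused to EGFP plus mCherry, mCherry+ cells FACS sorted, degron abundance counted by next-generation sequencing.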
row,Sequence,log2 fold change of degron read counts
1,FGCPQCGAFFTQKGNLLRHIKL,0.142
2,FECNVCGAPFTQKGNLLRHIKL,-0.921
3,FDCDICGAPFTQKGNLLRHIKL,-0.655
4,LFCNQCGFWCTQKGNLLRHIKL,2.11
5,FKCEICGRAFTQKGNLLRHIKL,-1.88
6,FKCEICGHGFTQKGNLLRHIKL,-2.38
7,FSCEQCGAGFTQKGNLLRHIKL,-1.04
8,LNCEICGFVCTQKGNLLRHIKL,0.592
9,FTCNQCGADFTQKGNLLRHIKL,-2.04
10,FGCPICGHKFTQKGNLLRHIKL,0.244
11,FECPICGADFTQKGNLLRHIKL,-0.818
12,FQCPICGAWFTQKGNLLRHIKL,0.253
13,FFCEICGHPFTQKGNLLRHIKL,0.248
14,FLCPVCGAAFTQKGNLLRHIKL,-0.254
15,FRCDVCGASFTQKGNLLRHIKL,-2.21
16,FKCEICGRKFTQKGNLLRHIKL,-1.29
17,FMCEICGAHFTQKGNLLRHIKL,-1.13
18,FVCPICGHPFTQKGNLLRHIKL,0.183
19,FECEVCGAWFTQKGNLLRHIKL,-1.06
20,FGCNVCGAKFTQKGNLLRHIKL,-0.84
21,FQCEVCGAKFTQKGNLLRHIKL,-1.53
22,LDCNQCGFQCTQKGNLLRHIKL,0.374
23,LDCEICGFQCTQKGNLLRHIKL,-0.328
24,FDCPICGRAFTQKGNLLRHIKL,-0.629
25,FACDQCGASFTQKGNLLRHIKL,-2.27

row,Sequence,log2 fold change of degron read counts
1,FMCEICGRAFTQKGNLLRHIKL,-1.18
2,FWCNQCGRAFTQKGNLLRHIKL,0.488
3,FRCPICGRIFTQKGNLLRHIKL,0.673
4,FVCPQCGAWFTQKGNLLRHIKL,0.66
5,FHCNVCGACFTQKGNLLRHIKL,-0.163
6,FICEQCGAVFTQKGNLLRHIKL,-1.24
7,FACNQCGHAFTQKGNLLRHIKL,-0.209
8,FICPQCGANFTQKGNLLRHIKL,-0.768
9,LSCNQCGFNCTQKGNLLRHIKL,0.439
10,FNCEICGHQFTQKGNLLRHIKL,-1
11,FGCPICGHIFTQKGNLLRHIKL,0.754
12,LNCPICGFDCTQKGNLLRHIKL,0.668
13,FDCPICGAIFTQKGNLLRHIKL,-0.28
14,LQCNQCGFDCTQKGNLLRHIKL,-0.274
15,FQCEVCGAPFTQKGNLLRHIKL,-0.704
16,LMCNQCGFACTQKGNLLRHIKL,0.636
17,FNCPICGHWFTQKGNLLRHIKL,0.658
18,FRCEVCGAYFTQKGNLLRHIKL,-0.773
19,FWCDICGAIFTQKGNLLRHIKL,1.29
20,FCCSVCGHEFTQKGNLLRHIKL,-1.2
21,FGCEICGANFTQKGNLLRHIKL,-1.03
22,FLCPVCGASFTQKGNLLRHIKL,-0.278
23,FACPVCGAWFTQKGNLLRHIKL,0.68
24,FDCSVCGHDFTQKGNLLRHIKL,0.43
25,FECDQCGADFTQKGNLLRHIKL,-2.59
